Reference: publication PMC7718735
Results are given in words; binding and its absence hold for the method and conditions named. Some binding calls cover weakened binding; strength is not graded here.

T1: Lem2 MYTH bait (S. pombe) (UniProt Q10109)
T1 sequence: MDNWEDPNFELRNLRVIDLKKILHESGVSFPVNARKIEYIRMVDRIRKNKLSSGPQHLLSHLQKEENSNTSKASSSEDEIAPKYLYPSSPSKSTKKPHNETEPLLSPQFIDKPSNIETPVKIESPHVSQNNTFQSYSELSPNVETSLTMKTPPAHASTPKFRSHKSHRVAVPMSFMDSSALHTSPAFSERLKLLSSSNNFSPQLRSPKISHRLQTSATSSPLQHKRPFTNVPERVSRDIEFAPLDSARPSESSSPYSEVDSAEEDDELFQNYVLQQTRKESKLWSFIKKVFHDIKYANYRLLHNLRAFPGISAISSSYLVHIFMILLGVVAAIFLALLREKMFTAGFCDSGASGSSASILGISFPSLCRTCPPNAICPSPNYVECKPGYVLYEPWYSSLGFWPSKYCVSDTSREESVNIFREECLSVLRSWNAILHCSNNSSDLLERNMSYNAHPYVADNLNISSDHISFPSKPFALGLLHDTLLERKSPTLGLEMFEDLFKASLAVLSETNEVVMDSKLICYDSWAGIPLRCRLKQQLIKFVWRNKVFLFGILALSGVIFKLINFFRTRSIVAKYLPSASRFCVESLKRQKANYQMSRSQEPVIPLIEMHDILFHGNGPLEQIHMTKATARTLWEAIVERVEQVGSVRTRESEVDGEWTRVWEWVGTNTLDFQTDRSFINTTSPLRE

T2: Cut11 MYTH bait (wild type) (S. pombe) (UniProt O13961)
T2 sequence: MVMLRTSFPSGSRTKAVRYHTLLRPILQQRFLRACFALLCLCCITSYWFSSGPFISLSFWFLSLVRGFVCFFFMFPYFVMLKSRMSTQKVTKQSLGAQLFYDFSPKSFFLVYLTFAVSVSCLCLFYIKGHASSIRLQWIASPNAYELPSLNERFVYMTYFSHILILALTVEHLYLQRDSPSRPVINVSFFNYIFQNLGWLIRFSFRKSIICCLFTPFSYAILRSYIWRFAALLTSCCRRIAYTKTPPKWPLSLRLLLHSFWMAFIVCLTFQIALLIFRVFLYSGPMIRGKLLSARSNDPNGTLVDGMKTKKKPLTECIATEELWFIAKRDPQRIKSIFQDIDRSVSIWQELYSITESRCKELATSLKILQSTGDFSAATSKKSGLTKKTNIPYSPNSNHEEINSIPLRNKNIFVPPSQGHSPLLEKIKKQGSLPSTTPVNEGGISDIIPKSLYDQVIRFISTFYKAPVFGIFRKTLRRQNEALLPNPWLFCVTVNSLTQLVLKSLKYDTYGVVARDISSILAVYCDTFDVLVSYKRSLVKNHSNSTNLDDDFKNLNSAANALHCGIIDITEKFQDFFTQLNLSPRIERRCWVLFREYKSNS

B1: Bqt4 MYTH prey (protein, UniProt O60158 1-432)
chain: MTENEKSRSLPAERNPLYKDDTLDHTPLIPKCRAQVIEFPDGPATFVRLKCTNPESKVPHFLMRMAKDSSISATSMFRSAFPKATQEEEDLEMRWIRDNLNPIEDKRVAGLWVPPADALALAKDYSMTPFINALLEASSTPSTYATPSRPTAQKSETSEGEPESSTSATTTSVARRTRQRLAEHLENSKKTILQHDNKEEDKEIHSEENETKDEIKSEKKEPEIKKQEGGSSTEKVGQPSSSDDKAKGSTSKDQPSEEEEKTSDIQDRKIKTPIKPSLLGKIRSSVNKGMTDVASQVNRGMTDVASQVNKGVNGVASQVNKGMNGVANQVNKGVTGVASQVRKPVGKLEKKFENLEKSIGDTLKSSIRSSPKSKKRSREDFEENEDYNAMVPVKRSRITKLESEVYYEKRKVRALGGIAIGLGVGAILPFLF
B2: Bqt3 MYTH prey (protein, UniProt O74510 1-255)
chain: MSGSKCCSSSNTIKVSIYLFLHTLTYGLLNYHLNPRLLASTGVVESDIPYWMSYLSIIMHVGQSLLLQKFNLGYGWLLLTKYPVYVLLSTYYLTPLSQIAWAFIIDAISLLVARCFSRANPIKCSNQVNTQYSVSFLFTIMASVLISVLNYISQKIFLNGLILGNSHNVVTSLVAPPLPLQYLAHVPIGYVIQRVVFSERPIPQSLFLMIFLTLWNCFIPYSILFSMNWSAMFQVVGAYLSQIWIITFICWALSL
B3: Sec13 MYTH prey (protein, UniProt O94319 1-297)
chain: MTTVDTQHDDMIHDAILDYYGKRLATCSSDQTIKVFSIENNQQTLLETLRGHSGPVWQLGWAHPKFGTILASASYDGHVIVWRETGGVWSELMDHTAHQASVNAVSWAPHEYGALLACASSDGKVSVLEFKDDGSCDTRIFTAHEPGCNAVCWSPPSLSGSVVGQSPAAGPKKLATAGCDNLVKIWAFDAGVNNWILEDTLAGHVDWTRDVAWAPSVGLTKTYLASASQDKNVFIWTKEGDGPWQKTPLTEEKFPDIAWRVSWSLSGNILAVSCGDNKVYLFKESQNKWQLLNELSN
B4: Ago1 MYTH prey (protein, UniProt O74957 1-834)
chain: MSYKPSSEIALRPGYGGLGKQITLKANFFQIISLPNETINQYHVIVGDGSRVPRKQSQLIWNSKEVKQYFGSSWMNSVYDGRSMCWSKGDIADGTIKVNIGSESHPREIEFSIQKSSKINLHTLSQFVNSKYSSDPQVLSSIMFLDLLLKKKPSETLFGFMHSFFTGENGVSLGGGVEAWKGFYQSIRPNQGFMSVNVDISSSAFWRNDSLLQILMEYTDCSNVRDLTRFDLKRLSRKFRFLKVTCQHRNNVGTDLANRVYSIEGFSSKSASDSFFVRRLNGEEQKISVAEYFLENHNVRLQYPNLPCILVKNGAMLPIEFCFVVKGQRYTAKLNSDQTANMIRFAVQRPFERVQQIDDFVHQMDWDTDPYLTQYGMKIQKKMLEVPARVLETPSIRYGGDCIERPVSGRWNLRGKRFLDPPRAPIRSWAVMCFTSTRRLPMRGIENFLQTYVQTLTSLGINFVMKKPPVLYADIRGSVEELCITLYKKAEQVGNAPPDYLFFILDKNSPEPYGSIKRVCNTMLGVPSQCAISKHILQSKPQYCANLGMKINVKVGGINCSLIPKSNPLGNVPTLILGGDVYHPGVGATGVSIASIVASVDLNGCKYTAVSRSQPRHQEVIEGMKDIVVYLLQGFRAMTKQQPQRIIYFRDGTSEGQFLSVINDELSQIKEACHSLSPKYNPKILVCTTQKRHHARFFIKNKSDGDRNGNPLPGTIIEKHVTHPYQYDFYLISHPSLQGVSVPVHYTVLHDEIQMPPDQFQTLCYNLCYVYARATSAVSLVPPVYYAHLVSNLARYQDVTADDTFVETSEASMDQEVKPLLALSSKLKTKMWYM
B5: Mmi1 MYTH prey (protein, UniProt O74958 1-488)
chain: MSNTNFSTSRSSKSIPELPNLEALRSLWPPPSLNESGDTRSVWTTHTGEPVASSVLSTSGSNNFSSPLKRPAPESHDAPIGRRLMVDDPRLIKHGKYDFSRHCTDYGHSYEWPYFRSLRRESMLYHTSGSYPESQPPYSSYSTDAPHYYHAGSESSAYYDSRSRLHGIQPPPKRRTLSPPPRRLADPVVVGSSRYVEEEVYRRPPYTLASEVPSSASAYQAGYSSYPVRSSPQLSHEDTRHGIASSGSTRYPFVPANTRASHSPSLLEPYAHSLPSSVAPVGAYPEKSSYLLSNSSNDSASRKEKPKARASTPPPLNFSRASEHRNEKGERISMINPRVVLDENGISHRSRYFIMLCDNETAIAHAKKTSIWAVKKDSSKRISDAYKKASVYFIFVAQQTYNALGYAQVVSDLNSTELPFWSDSSHAGGVRIKWIKTCNLFSAEISEIVSHMDHGSEARDGMEMMYDEGSRLCTLINYAIMKRIGRDR
B6: Shf1 MYTH prey (protein, UniProt Q9UUI2 1-165)
chain: MSSRRNDYHYDGNDHQYRSPLKSNVDQNSFYESSYRSRQSYHQRTKTPRSSYDSPSSSTNSKEHNSPYHYRVPSNNSTRASFGAASTDTNVELPKINLPDSSLSSKLQSCKSACENSSQSLLNVEQQYAQQVHFWEKIRTDIYREGLRSDAAVKSLNDFVNNVSF
B7: Nsp1 MYTH prey (protein, UniProt Q10168 1-598)
chain: MSFNPGNNQNSGFSFGKPAQPNSAAQGAATPAATGLFGNTNNNTSSTAPSGGLFGSNNASNTSAPSTFSFGKAATTGNSTNASTSSPFSFGSTNTNNTAGAKPLFGGLGSTGSANSTGDKSKNTASSATGAATTNPSGSTFNFGSSNNSFNFGKPASTTNTTTPAAASTGSLFGKPAATGTTSNAPPASSTSTTPATGSGGFSFGKPASLGSTNNASTSTTANSGFSFGKPATTSAPGSNTTVTPSSSITGTNDSKPAASNTGSAPTTGFSFGKPAGQAASTATDKGTTTTSSAGTGFSFGKPATTEDTNKPTAPNSAFTKPATSTGDNKPTFSFGNTSKPTENTSTTATSAPPLSNNTKPAEGANQTSSGFSFGKPATDTTTSTSKTGPLFGNKPADPSAKPGATASTTPSEPPPSSIKHKTLQEILNKWSTDLTTQTEVFNKLCDQVSDWDRTLVDNGALISKLYTETVEAEQMSNRIDDGLEYVSSSQQELFKLLDSYETQLETFDGRATSALNVERERAFGVADDILSRLDRLGEDLGTVINQMNDFSKPDDSISEIVKVLNAQLASLGWVENRIFQMEEKLDTIKKKNSDVLF
B8: Nup44 MYTH prey (protein, UniProt O42963 1-403)
chain: MAFSFGQQGSSIKAPSIGSTGVFGQSNTTKPTAPFGSGSIFGSTNTNVGAGGPTGSSSAPPFGNSIFGKTQQQPTTSFSNTTTNAPQSTVFGQNAASRTGNSNTQPLFSWSTVNNPTKPVDETNATIPSSLLLSSGISPNATVSNAQYGPAQPPSVEEQVQKILNAWNLNHPDCAFQRFFYNKVPVEQAALYVKPPNYNQQKWDEAVANRPSNSVVPVLAVGFPDVQKRINMQIQQVNTYRIRMREIVETLGRLSNKHDLDFSIKLAEAKNRHVRLSERILRLAIKVHVLRHRGYALKPNEEELRKKLDDLTKSLNNPEIFGRLNEIWARITLIFEGEKISEDQRSNLAKGVVDWRKNSDQLEVITDVLRDHQVGLSYVVKLMQEDLATLNKQLTEHVPQSQK
B9: Nup45 MYTH prey (protein, UniProt Q09793 1-425)
chain: MFGLNKTPSFGSTGTQNQNTGTSAGTGLFSSNTFGNNTQANTPASTGFGGVTGGAFGQTKPQTGGSLFGNKPNATSTTPGLNLFGQNPQAAPGGSLFGASTTKPQAPGGLFNQNQTQAQPAQAAPTGGLFGLSGQNQTQSQTQPAQANTSLFGQSNIGTTGGLFDQNRPNTSTFGQFSTQPASAGLFGQSTQPSGSTGFGLSNNTQTTPFFSAAQQQPSTTQLPSNPAINATTRYSSLNANTQKFLDDLDKEIFSQIQLAEELQTKLGTVSELVESVPNDVAEVQRRLSSVSTALLIDSDEIETTKRVVDEDTSNARISSRILDVFKTPGATYPFASNDPLMNYFEQFTENAKKRTDLYAATIGELEQHLEQVETTPQNNSPEALLKTIKEEHKLFMALSNRFAQVHDEVKRLQVNTSTSLPFIS

How the values were obtained:
[1] = target: T1, Lem2 MYTH bait (S. pombe); test: two-hybrid; split-ubiquitin membrane yeast two-hybrid (MYTH) in S. cerevisiae; bait-Cub-LexA-VP16 strains mated with the arrayed Nub prey library, diploids spotted in quadruplicate on SD-leu-trp-ade-his with 25 mM 3-AT, imaged every 24 hr for 4 days; positive by a colony density cutoff
[2] = target: T2, Cut11 MYTH bait (wild type) (S. pombe); test: as above

Binder	binding [1]	binding [2]
B1	binds	
B2	binds	
B3	binds weakly	
B4	no binding	
B5	no binding	
B6	no binding	
B7		no binding
B8		no binding
B9		no binding
